From PubChem BioAssay AID1159614 (National Center for Advancing Translational Sciences (NCATS), 2016)
The whole screen tested about 45,000 compounds, of which about 65 (0.1%) were called active. Calls come from the whole dose curve; as a rule, active = well fitted activation curve with a large enough effect; inconclusive = small, poorly fitted or top-dose-only effect; inactive = no such curve, though single readings can be large or run the other way. This is one part of the list.

target: Galactocerebrosidase (Homo sapiens) (UniProt P54803); experiment: A Novel Cell-Based Assay to Identify Small Molecules for B -Galactocerebrosidase; conditions: 145M-Twi-hGALC-G270D cells (Twitcher mouse brain line with human GALC G270D), HMU-beta-Gal fluorescence, 48 h; series mostly up to 57.5 µM; activation: at the top concentration; note: 0% is about no effect; nearly all actives have a fitted effect of over 65% in size
Chain of UniProt P54803 (P54803 whole entry, looked up): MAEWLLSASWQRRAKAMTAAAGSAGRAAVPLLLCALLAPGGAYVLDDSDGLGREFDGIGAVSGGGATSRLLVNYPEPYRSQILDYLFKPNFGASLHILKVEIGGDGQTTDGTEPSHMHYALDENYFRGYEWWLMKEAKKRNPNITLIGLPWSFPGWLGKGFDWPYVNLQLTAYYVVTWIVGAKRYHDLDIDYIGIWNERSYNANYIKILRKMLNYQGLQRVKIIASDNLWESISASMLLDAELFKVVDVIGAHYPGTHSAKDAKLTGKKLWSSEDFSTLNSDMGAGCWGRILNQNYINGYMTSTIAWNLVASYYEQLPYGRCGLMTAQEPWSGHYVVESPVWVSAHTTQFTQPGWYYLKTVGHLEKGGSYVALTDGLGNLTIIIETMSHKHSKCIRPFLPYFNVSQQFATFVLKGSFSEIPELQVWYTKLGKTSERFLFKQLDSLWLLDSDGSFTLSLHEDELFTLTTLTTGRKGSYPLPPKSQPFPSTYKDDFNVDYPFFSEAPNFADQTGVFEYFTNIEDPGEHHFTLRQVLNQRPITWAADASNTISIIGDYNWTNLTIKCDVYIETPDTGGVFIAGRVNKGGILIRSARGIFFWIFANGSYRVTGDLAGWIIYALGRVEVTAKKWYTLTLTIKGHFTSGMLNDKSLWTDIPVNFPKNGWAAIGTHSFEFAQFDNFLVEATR
Outline: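 Mutant human GALC (G270D), stably expressed in a Twitcher mouse brain cell line lacking endogenous GALC, is measured in live-treated cells via 6-hexadecanoylamino-4-methylumbelliferyl-β-galactoside hydrolysis (0.1 mM final, pH 5.2) with fluorescent detection.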

activation, inactive:
COC(=O)c1ccc(OCC2c3cc(OC)c(OC)cc3CCN2C(=O)c2cccc(C)c2)cc1 (stereo not given) -21.8%
COc1ccc(NC(=O)C2CCN(C3=NS(=O)(=O)C(c4ccc(C)c(C)c4)=C3C)CC2)cc1OC -9.3%
COc1cccc(N2CCN(C(=O)CN3CCSc4ccc(S(=O)(=O)N(C)C)cc43)CC2)c1 -18.7%
COc1ccc(Nc2ncnc3onc(C)c23)cc1Cl -27.2%
CCCSCCCNC(=O)C1CCCN(C(=O)c2cnn(-c3ccccc3)c2-n2cccc2)C1 (stereo not given) -12.1%
O=C(Cn1nc(Cc2cccnc2)c2ccccc2c1=O)N1CCN(c2ccc(F)cc2)CC1 -8.69%
COc1cccc(CNC(=O)Cn2c(=O)n3nc(-c4cccc(C)c4)nc3c3ccccc32)c1 -11.4%
CCCCN(Cc1ccccc1)S(=O)(=O)c1ccc2c(c1)CCN2C(=O)C1CCC1 -4.23%
Cc1ccc(NC(=O)[C@H](CSCc2ccccc2)N2Cc3ccccc3C2=O)cc1 -11.2%
COc1ccc(OC)c(CNC(=O)CCS(=O)(=O)c2ccc3c(c2)oc(=O)n3C)c1 -23.9%
CCN(C(=O)C(NS(=O)(=O)c1cccc2nsnc12)c1ccccc1)c1ccccc1 (stereo not given) -15.2%
COc1ccc(-c2ccnc3c2c(=O)n(C)c(=O)n3C)cc1OC -12.7%
COCCCNC(=O)CCCN1C(=O)CCn2nc(-c3cn(C)c4ccccc34)cc21 -6.67%
Cc1ccc(C)c(N2CCN(CCCNc3ncnc4onc(-c5ccc(Cl)cc5)c34)CC2)c1 -11.9%
CC1CCN(S(=O)(=O)c2cccc(C(=O)NC3CCS(=O)(=O)C3)c2)CC1 (stereo not given) -20.7%
Cc1cc(C)c(NC(=O)CN2C(=O)c3cccnc3Oc3ccc(Cl)cc32)c(C)c1 -6.61%
Cc1cc(Nc2ccc(C)c(Cl)c2)n2nc(-c3ccccc3)nc2n1 -1.68%
Cc1ccc(C(=O)N2c3nc(-c4ccco4)nn3C3(CCCCC3)[C@@H]3CCCC[C@@H]32)cc1 -7.17%
COc1ccc(OC)c(CNC(=O)c2cc(=O)[nH]c3ccc(S(=O)(=O)N4CCCCC4C)cc23)c1 (stereo not given) 4.03%
Cc1ccc2cccc(NC(=O)c3ccc(-c4ccc(Cl)cc4Cl)o3)c2n1 -8.48%
Cc1csc2nc(-c3cccc(NC(=O)c4ccc(S(N)(=O)=O)cc4)c3)cn12 -13.8%
COc1ccc(-c2nc3cc(NC(=O)COc4ccc(F)cc4)ccc3o2)cc1 -14.4%
O=C(CCNS(=O)(=O)c1cccc2nsnc12)Nc1ccc(F)cc1 0.307%
CCOC(=O)N1CCC(NC(=O)c2cnn(-c3ccccc3)c2C2CCN(C(=O)OC(C)(C)C)CC2)CC1 5.71%
COc1ccc(S(=O)(=O)NCCc2sc(-c3ccccc3)nc2C)cc1OC -26.3%
CCc1ccccc1NC(=O)CSc1ncc2c(n1)-c1ccccc1N(C)S2(=O)=O -11.3%
O=C(NCCC1=CCCCC1)c1ccc2c(c1)ncn2-c1cccc(Cl)c1 -11.4%
COc1cccc(NC(=O)Cn2c(=O)n(Cc3nc(-c4ccccc4)no3)c(=O)c3ccccc32)c1 -17%
CCOc1ccc(-c2cc(C)n3nc(C(=O)Nc4cc(Cl)ccc4O)cc3n2)cc1 -4.3%
COc1ccccc1/C=C(\C#N)c1nc(-c2cc3ccccc3oc2=O)cs1 -12.2%
CCC(=O)Nc1ccc(S(=O)(=O)NCc2cccn2Cc2cccc(C)c2)cc1 -0.2%
CCc1ccccc1NC(=O)Nc1ccc2snnc2c1 -3.43%
CCC(CC)C(=O)N1CCc2cc(OC)c(OC)cc2C1COc1ccc(F)cc1 (stereo not given) -14.6%
Cc1ccc(CNC(=O)CSc2c(C(C)C)cnc3c2c(=O)n(C)c(=O)n3C)cc1 -0.198%
Cc1cccc(CC(=O)N2CC(=O)Nc3ccc(F)cc3C2c2ccccc2)c1 (stereo not given) -6.7%
O=C(CSCc1ccc(F)cc1)NCc1ccc(F)cc1 -12.3%
COc1cc(NC(=O)CCCc2nnc3n(C)c(=O)c4sccc4n23)cc(OC)c1OC 2.05%
O=C(CSc1nc(Nc2ccc(F)c(F)c2)c2ccccc2n1)c1ccc(Cl)cc1 -5.29%
Cc1cccc(-n2ncc(C(=O)NCc3ccc4c(c3)OCO4)c2C2CCN(C(=O)OC(C)(C)C)CC2)c1 -8.98%
CCc1ccc(NS(=O)(=O)c2ccc3[nH]c4c(c3c2)CCCCCC4)cc1 -10.2%
CCOc1ccccc1Nc1nc2c(S(=O)(=O)c3ccc(C)cc3)nnn2c2ccsc12 1.06%
CC(C)(C)OC(=O)N1CCC(c2c(C(=O)NCCN3CCOCC3)cnn2-c2ccc(F)cc2F)CC1 -7.02%
CCc1ccc(NC(=O)CN2C(=O)CC(c3ccccc3)Sc3ccccc32)cc1 (stereo not given) 4.81%
CCCCN(C)CCNC(=O)c1cc(-c2ccc(Cl)s2)nc2ccccc12 -11.6%
COc1ccc(-c2cccc(NS(=O)(=O)c3ccc(NC(C)=O)cc3)c2)nn1 -18.7%
CCCCCNC(=O)C1CCC(Cn2c(=O)c3sccc3n(CC)c2=O)CC1 (stereo not given) -2.07%
CCc1cccc(C)c1NC(=O)CN1C(=O)c2cccc3cccc1c23 -11.4%
CC(=O)Nc1ccc(NC(=O)c2ncoc2-c2ccco2)cc1 -0.307%
Cc1ccc2nc(CSc3nnc(NC(=O)c4ccc(C(C)(C)C)cc4)s3)cc(=O)n2c1 -6.42%
Cc1ccc(-c2nc3scc(CCNS(=O)(=O)c4ccc(Oc5ccccc5)cc4)n3n2)cc1 -21.9%
CCOC(=O)c1c(-c2ccccc2)csc1NC(=O)c1nc(SCC)ncc1Cl -18.3%
COc1cccc(/C=C(\C#N)C(=O)Nc2ccc(NC(C)=O)cc2)c1OC -4.98%
COc1ccc(NC(=O)CSc2cn(CCNC(=O)c3ccc(OC)cc3)c3ccccc23)cc1 -9.35%
Cc1ccc(CN2C(=O)C3(c4ccccc42)N(c2ccc(C)c(Cl)c2)C(=O)CS3(=O)=O)cc1 (stereo not given) -3.24%
COc1ccc(Br)cc1CNC(=O)CSc1n[nH]c(-c2ccccc2)n1 -5.8%
CCC(C)[C@H](N)c1nnc(SCc2ccc(Cl)c(Cl)c2)o1 (stereo not given in full) -21.5%
Cc1oc(-c2cccc(Br)c2)nc1Cn1c(SCc2cccc(F)c2)nc2cccnc21 -9.91%
O=C(CCC1N=C2c3ccccc3N=C(SCc3cccc(Cl)c3)N2C1=O)NCCc1ccccc1 (stereo not given) -12.3%
COc1ccc(NC(=O)CCS(=O)(=O)c2ccc3c(c2)n(C)c(=O)c(=O)n3C)cc1Cl -6.2%
CCCCC(O)/C=C(C)/C=C/C=C/C(=O)N1CCCC1=O (stereo not given) -8.56%
Cc1ccc(S(=O)(=O)NCCSc2nnnn2-c2ccccc2)cc1 -13.1%
COc1ccc2c(c1)NC(c1ccc(Cl)cc1)=NC(c1cccs1)=N2 -6.05%
CN1CCN(C2=Nc3cc(F)ccc3Cc3ccccc32)CC1 -1.42%
CCn1c(CN2CCCCC2)nc2cc(NC(=O)COc3ccc(C(C)(C)C)cc3)ccc21 -15.3%
CC1=C(C(=O)Nc2ccccc2)C(c2ccc(O)cc2)n2nc(-c3ccc(Cl)cc3)nc2N1 (stereo not given) -0.278%
Cc1ccc(C)c(Cn2c(=O)n(Cc3ccccc3)c(=O)c3sc4ccccc4c32)c1 -11.7%
CC(C)(C)c1ccc(-c2nnc(-c3ccccc3NC(=O)c3cccc(C(F)(F)F)c3)o2)cc1 -24.7%
CCCN1C(=O)C(Cc2nc3ccccc3c(=O)n2CC)c2cc(Br)ccc21 (stereo not given) -17.9%
CCOc1ccccc1CNC(=O)c1cnc2sc(N3CCCCCC3)nn2c1=O 2.64%
CCOc1ccccc1NC(=O)c1c(NC(=O)c2ccccc2)sc2c1CCCC2 -10.2%
CCc1ccc(Oc2c(C(F)(F)F)oc3c(CN4CCN(C)CC4)c(O)ccc3c2=O)cc1 -14.7%
O=C(Cn1cc(SCc2cccc(Cl)c2)c2ccccc21)N1CCCCCC1 -2.96%
COc1cccc(C(=O)NCc2nc(-c3ccccc3)no2)c1OC -5.86%
O=S(=O)(O)c1ccc(O)cc1 -8.51%
CCc1ccc(S(=O)(=O)NCCc2csc3nc(-c4ccccc4)nn23)s1 0.535%
CC(C)(C)c1ccc(-c2nc3cc(NC(=O)c4cccc(Br)c4)ccc3o2)cc1 -6.62%
COc1cccc(CNC(=O)Cn2ncc3c4ccccc4n(Cc4ccccc4)c3c2=O)c1 -9.9%
COc1ccccc1CN(Cc1ccco1)c1cnc(S(C)(=O)=O)nc1C(=O)Nc1cc(C)ccc1C -10.9%
O=C(NCCc1csc2nc(-c3ccc(F)cc3)nn12)c1cccc(C(F)(F)F)c1 -1.15%
COc1ccc(-n2ccn(CC(=O)NCCc3ccccc3)c(=O)c2=O)cc1OC -15.1%
Cc1oc(-c2ccccc2)nc1CCC(=O)c1ccc(CC2SC(=O)NC2=O)cc1 (stereo not given) -13.9%
COc1ccc(Cn2c(SCc3ccc(C(=O)NC4CCCC4)cc3)nc3cccnc32)cc1 -17.8%
Cc1cccc(NC(=O)CCc2c(C)nc3nc(CNC(=O)c4cccc(F)c4)nn3c2C)c1 -8.78%
COc1ccc(-c2noc(CSc3nnc(-c4ccncc4)n3-c3ccc(C)cc3)n2)cc1OC -1.91%
O=C(Cn1c(=O)n(Cc2ccc3c(c2)OCO3)c(=O)c2oc3ccccc3c21)Nc1ccc(F)cc1 -0.44%
CCn1cc(CNC(=O)c2cc(-c3ccc(C)c(C)c3)nc3ccccc23)c(C)n1 -2.11%
CC1CCCCN1C(=O)Cn1c(SCC(=O)N(C)c2ccccc2)nc2ccccc21 (stereo not given) -22.2%
Cc1cccc(C(c2sc3nc(-c4ccco4)nn3c2O)N2CCN(c3ccccc3)CC2)c1 (stereo not given) -10.6%
O=C(C1CCCCC1)N1CC(=O)N2CCc3ccccc3C2C1 (stereo not given) -12%
CCOc1ccccc1CNS(=O)(=O)c1ccc(-c2coc(C)n2)cc1 -40.8%
O=C(Cn1nc2c(cc1=O)CCCC2)Nc1ccccc1C(F)(F)F 4.26%
Cc1ccc(NC(=O)c2ccc(NC(=O)N3CCSc4nc(C)cc(C)c43)cc2)c(Cl)c1 -2.39%
COC(=O)c1ccccc1NC(=O)c1cc2nc(-c3ccc(OC)cc3)cc(C(F)(F)F)n2n1 -2.49%
Cc1ccc(NC(=O)c2ccc(=O)n(CC(=O)Nc3cccc(C)c3)n2)cc1 -9.76%
CCOC(=O)CNS(=O)(=O)c1cc(-c2nnc(Nc3cccc(O)c3)c3ccccc23)ccc1C -8.17%
